Screen size: about 320,000 compounds; about 9,100 (2.8%) were called active. The inconclusive results got no clear call from the source; some entries with a clear call stand among them for comparison. Calls come from the whole dose curve; as a rule, active = well fitted activation curve with a large enough effect; inconclusive = small, poorly fitted or top-dose-only effect; inactive = no such curve, though single readings can be large or run the other way. No potency is given beside an inconclusive call; the fits are too rough.
Experiment: qHTS Assay for Rab9 Promoter Activators; note: nearly all actives have a fitted effect of over 60% in size
Settings: Huh7 Rab9 promoter-luciferase reporter, luminescence, 24 h; series mostly up to 9.22 µM
In short: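 Using Huh7 cells stably transfected with Rab9 promoter–luciferase, compounds were incubated 24 h at 37 °C, 5% CO2; luciferase luminescence was read 10 min after reagent addition.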
Potency is the fitted concentration of half-maximal effect; tags give direction and shape of the fitted curve.

SMILES | Potency
O=C(N=C1c2ccccc2CN1c1ccc(F)c(Cl)c1)c1cccnc1Cl | inconclusive [activator, partial curve]
CCCc1cc(=O)oc2cc(OCc3ccc(C(=O)O)cc3)ccc12 | inconclusive [activator, partial curve]
CCN(CC)C(=O)CSC(=Nc1ccccc1F)NC#N | active: 3.98 µM
O=C(COc1ccccc1C(=O)c1cnn(-c2ccccc2)c1)Nc1ccccc1 | inconclusive [activator, partial curve]
COC(=O)c1ccc(-c2ccc(/C=N/N3C(=O)C4C5C=CC(C6CC56)C4C3=O)o2)cc1 (stereo not given) | inconclusive [activator, single point]
Cc1ccc(-n2c(C)nnc2SCC(=O)N(C)c2c(N)n(Cc3ccccc3)c(=O)[nH]c2=O)cc1 | inactive
COc1ccc(-c2c(C)nn(-c3ccccc3)c2N)cc1 | inconclusive [activator, single point]
O=C(CCN1CCc2ccccc21)c1ccc2c(c1)OCCO2 | inconclusive [activator, partial curve]
CCN(CC)c1ccc(/C=N/NC(=O)c2ccco2)cc1 | inconclusive [activator, partial curve]
Cc1ccc(NC(=O)c2ccc(CSc3ccccn3)cc2)cc1 | inconclusive [activator, partial curve]
O=C(Nc1cccc(Cl)c1)OCc1cncs1 | inactive
Cc1ccc(C)c(NC(=O)c2ccc3c(=O)n4c(nc3c2)CCC4)c1 | inconclusive [activator, partial curve]
COc1ccc(NC(=O)CSc2ccccn2)c([N+](=O)[O-])c1 | inconclusive [activator, partial curve]
CCOC(=O)c1c(C)[nH]c(C(=O)CSc2nccc(C)n2)c1C | active: 2.82 µM
O=C(Nc1cccc(Cl)c1)c1ccc(OC(=S)N2CCOCC2)cc1 | inconclusive [activator, partial curve]
COc1cccc(NC(=O)c2cccs2)c1 | inconclusive [activator, single point]
Cc1cc(N2CCC(C(=O)N3CCN(c4cccc(C)c4C)CC3)CC2)n2ncnc2n1 | inactive
Cc1ccc(N/N=C2\CC(=O)c3ccccc32)cc1Cl | inactive
Cc1cc(Cl)ccc1OCCCC(=O)N1CCCCC1 | inconclusive [activator, partial curve]
COc1ccc(C(=O)N/N=C/c2ccccc2OC(=O)c2ccccc2)cc1 | inactive

Reference: PubChem BioAssay AID485297 (National Center for Advancing Translational Sciences (NCATS), 2010)
